± gives the standard deviation of the averaged measurements. This is one part of the list.
test system: PfAP2-EXP AP2 domain (GST-tagged); assay: gcPBM binding intensity (ln(normalized median fluorescence intensity)); higher = stronger DNA binding
Method in brief: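 Using an Agilent 4 × 180k array, primer-extended double-stranded 36-bp intergenic genomic probes and negative controls were exposed for 1 h to GST-fused P. falciparum DNA-binding domains expressed in E. coli. Binding was carried out in 1× PBS with 1% milk, 0.2 mg/ml BSA, 0.5% salmon testes DNA and 0.03% Triton X-100, and protein was detected with Alexa488 anti-GST antibody and a 488 nm scan. Binding intensity is the highest Masliner-normalised natural-log median intensity across replicate spots of either probe orientation.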

Row | Sequence | gcPBM binding intensity (ln)
1 | AATCCTTACGAACACACACACACGAATAAATAAAAA [CACACA_site6363] | 8.84 ± 0.59
2 | TAGAATTAAGTTATTGCACACAGGAAAAGTTTCATA [CACACA_site1634] | 8.47 ± 0.17
3 | ATAAATAAGAAAAATTGTACAATATTTTTTAGGATA [XGTACX_site3163] | 8.59 ± 0.36
4 | TCTTCGAAACTATCACTCTCACAATTCATTTATTTT [TGCATGCA_negctrl_site156] | 8.76 ± 0.49
5 | AACACATAAAAAAGGTGTACCATAAAATATACATAC [XGTACX_site4478] | 8.68 ± 0.24
6 | CTCATTTTTGTACAGGTGCACTTATCGTTACACTAT | 9.61 ± 0.057
7 | ATATATATATATATATCATTTATTTAAAAATTTTTT [TGCATGCA_negctrl_site228] | 10.1 ± 0.3
8 | TATTTTATCATTTTTTTTATGTCTTTATTTCACTTG [CACACA_negctrl_site1398] | 8.72 ± 0.47
9 | ATATACATTAAATGAACACACATAAATAAATTACAT [CACACA_site2852] | 8.53 ± 0.45
10 | TTTTAATTTTGTTGTTGTACAAATAACATGTGAGGG [XGTACX_site4401] | 9.14 ± 0.46
11 | CTGTGTTTTGGTTGTACACACGCTACATTATATATT [CACACA_site5487] | 9.31 ± 0.18
12 | ATATACACATTAATAACACACAATATGATAACAAAT [CACACA_site7670] | 8.79 ± 0.33
13 | GTGCATAAATCATACACACACACATATATAAATATA [CACACA_site7188] | 8.54 ± 0.45
14 | GTGTTTTTATGTGAATGTACATATTTACTATCACAC [XGTACX_site2388] | 8.96 ± 0.22
15 | AAAGTTTTTATAAAAAAAAAAATAAATACCATATAT [XGTACX_negctrl_site113] | 8.63 ± 0.48
16 | AAAAGTTTAAGTTTTCGAAAATTTACCAAAAAAAAA [CACACA_negctrl_site1644] | 8.42 ± 0.48
17 | TTACTTTAACCTTCTCGTACTTATTTACTTTATTCT [XGTACX_site7801] | 9.05 ± 0.61
18 | TTTTATTATTCTTCTCTCTTATATATATATATATAT [CACACA_negctrl_site646] | 10.2 ± 0.26
19 | TTTCAAAGGAAATGGTGTACACAATTTTTCCTTTTT [XGTACX_site2340] | 8.47 ± 0.23
20 | TACTTTTATATGAATACACACAGGAATATATATATG [CACACA_site3568] | 8.5 ± 0.41
21 | ACTGTGGTATAAAGTTGTACATGTTTTTATATATTT [XGTACX_site5257] | 8.65 ± 0.47
22 | ATAACATAGGCAATCACACATATCATTAAGGTGTCA [CACACA_site5233] | 8.56 ± 0.37
23 | GTCTAAAAATAAAAAGTGCATTTGTTTAATATTTTG | 8.5 ± 0.099
24 | TATTATTATTATTATTTTAAAAGAAATAAAAATATG [XGTACX_negctrl_site119] | 8.1 ± 0.39

From the supplement of paper PMC11417369
